In PubChem BioAssay AID588342 (National Center for Advancing Translational Sciences (NCATS), 2011):
About 25,000 (6.9%) of roughly 360,000 compounds were called active. The shares of active, inactive and inconclusive entries below differ from those in the screen. Calls come from the whole dose curve; as a rule, active = well fitted inhibition curve with a large enough effect; inconclusive = small, poorly fitted or top-dose-only effect; inactive = flat fitted curve, though single readings scatter. Potencies of inconclusive entries are doubtful fits and often do not repeat.

Biological target: Luciferin 4-monooxygenase (Photinus pyralis) (UniProt P08659)
Test: qHTS profiling assay for firefly luciferase inhibitor/activator using purifed enzyme and Km concentrations of substrates (counterscreen for miR-21 project); note: nearly all actives have a fitted effect of over 55% in size
Details: purified FLuc, luminescence inhibition; series mostly up to 57.5 µM
Summary of the method: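 Biochemical qHTS of compounds, final roughly 60 µM downward over six points, against 10 nM purified firefly luciferase using Km concentrations of substrates (10 uM D-luciferin, 10 uM ATP) in Tris acetate pH 7.5 buffer; luminescence output.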
Potency is the fitted concentration of half-maximal effect; tags give direction and shape of the fitted curve.

Sequence of UniProt P08659 (P08659 whole entry, looked up): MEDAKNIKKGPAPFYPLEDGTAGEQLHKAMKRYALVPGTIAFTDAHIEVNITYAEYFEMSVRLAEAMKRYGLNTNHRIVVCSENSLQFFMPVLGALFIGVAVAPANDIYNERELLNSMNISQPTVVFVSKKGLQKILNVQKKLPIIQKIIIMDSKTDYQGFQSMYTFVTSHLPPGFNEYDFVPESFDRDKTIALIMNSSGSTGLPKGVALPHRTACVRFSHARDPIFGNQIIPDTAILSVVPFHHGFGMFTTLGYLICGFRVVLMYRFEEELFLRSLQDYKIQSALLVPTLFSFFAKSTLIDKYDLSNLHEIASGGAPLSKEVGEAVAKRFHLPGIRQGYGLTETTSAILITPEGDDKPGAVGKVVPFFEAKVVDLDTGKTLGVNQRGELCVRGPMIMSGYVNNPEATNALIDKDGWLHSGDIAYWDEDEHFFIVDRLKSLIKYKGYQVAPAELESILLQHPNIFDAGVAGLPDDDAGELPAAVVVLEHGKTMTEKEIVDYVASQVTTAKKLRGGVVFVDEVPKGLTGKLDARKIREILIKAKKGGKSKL

SMILES	Potency
COc1cccc(C(=O)O/N=C(\N)c2ccc([N+](=O)[O-])cc2)c1OC	active: 10.7 µM
Cc1cccc(NC(=O)c2cnn3ccccc23)c1C	inconclusive: 19 µM [inhibitor, partial curve]
COc1ccc(N(C(=O)Cc2cccs2)C(C(=O)NC2CCCC2)c2ccncc2)cc1 (stereo unspecified)	inconclusive: 26.9 µM [inhibitor, partial curve, poor fit]
O=C(NCc1cccs1)C1CCN(S(=O)(=O)c2ccc3c(c2)OCCO3)CC1	inactive
Cc1ccc(-c2nc3ccccc3n2C)o1	active: 5.36 µM
Cc1cccc(C(=O)N2CCc3cc(CNC(=O)CCc4ccccc4)ccc32)c1	inactive
O=C(O)c1cnn(-c2nc(-c3ccc(Br)cc3)cs2)c1C(F)(F)F	inconclusive: 23.9 µM [inhibitor, single point]
CC1(C)Cc2c(sc(/N=C/N3CCCCCC3)c2C#N)C(C)(C)N1	inactive
Cc1ccc(-c2c(C)sc(=NC(=O)c3ccco3)n2C)cc1	active: 0.953 µM
O=C(Nc1ccccc1C(=O)Nc1nnc(C(F)(F)F)s1)c1ccccc1	inconclusive: 30.1 µM [inhibitor, single point]
CC(=O)Nc1cccc(NC(=O)c2cc(-c3cccnc3)nc3ccc(Br)cc23)c1	inconclusive: 23.9 µM [inhibitor, partial curve]
COC(=O)C(C)Sc1ncnc2c1nnn2-c1ccc(F)cc1 (stereo unspecified)	active: 8.49 µM
CN(CC(=O)Nc1ccc(F)cc1)C(=O)COC(=O)/C=C/c1ccccc1[N+](=O)[O-]	inactive
CN(C)c1ccc(C(=O)N2CCCC(CCC(=O)N3CCN(c4ccccn4)CC3)C2)cc1 (stereo unspecified)	inconclusive: 23.9 µM [inhibitor, partial curve, poor fit]
Cc1nn(C(=O)c2cc3sccc3[nH]2)c(C)c1C	active: 3.01 µM
Cn1cc(Br)c(C(=O)n2cc(Br)cn2)n1	inconclusive: 37.9 µM [inhibitor, single point]
Cc1cc(CO)nn1-c1ccc([N+](=O)[O-])cc1	inactive
CS(=O)(=O)Cc1cccc(C(=O)NN(c2ccccc2)c2ccccc2)c1	inactive
Cn1c(=O)n(C)c2cc(NS(=O)(=O)c3ccccc3)c(NCc3ccccc3)cc21	inconclusive: 30.1 µM [inhibitor, partial curve, poor fit]
Cc1cc(=O)n2[nH]c(N)c(N=Nc3ccccc3)c2n1	inconclusive: 26.9 µM [inhibitor, single point]
CN(C)c1ccc(/C=N/NC(=O)c2ccc(CN3C(=O)c4cccc5cccc3c45)cc2)cc1	inconclusive: 30.1 µM [inhibitor, partial curve, poor fit]
O=C(Nc1nnc(C2CC2)s1)c1ccncc1	inconclusive: 33.8 µM [inhibitor, partial curve, poor fit]
[2H]c1c([2H])c([2H])c(C(=O)c2sc(N3CCCCCC3)nc2-c2ccccc2)c([2H])c1[2H]	inconclusive: 37.9 µM [inhibitor, partial curve, poor fit]
N#Cc1cn(CCOc2ccccc2F)c2ccccc12	inconclusive: 26.9 µM [inhibitor, partial curve, poor fit]

SMILES	Potency
COc1ccc(CN(C)C(=O)c2cc(-c3ccc(OC)c(OC)c3)nc3ccccc23)c(OC)c1	inactive
Cc1ccccc1C1CCCN(Cc2nc(CC3CC3)no2)C1 (stereo unspecified)	inactive
Cc1ccc(Cn2ccc(NC(=O)c3noc4c3CCCC4)n2)cc1	inconclusive: 9.53 µM [inhibitor, partial curve]
COc1ccccc1CCCNC(=O)C1CCC(=O)N(Cc2ccccc2F)C1 (stereo unspecified)	active: 21.3 µM
CC(=O)Nc1ccc(C(=O)CSc2nc3ccc(C)cc3[nH]2)cc1	inconclusive: 30.1 µM [inhibitor, single point]
COc1ccc(CCNCc2c(C(=O)O)c(C)n(Cc3ccccc3C)c2C)c(OC)c1	inactive
COC(=O)c1cc(S(=O)(=O)N2CCN(c3ccc(C(C)=O)cc3)CC2)cn1C	inactive
Cc1ccc(N=Cc2c(O)n(-c3nccs3)c(=O)c3ccccc23)cc1	inconclusive: 10.7 µM [inhibitor, partial curve]
CCOc1ccccc1N(C)C(=O)Cn1cnc2sc(C)c(S(=O)(=O)N3CCC(C)CC3)c2c1=O	inactive
CC(=O)NCCc1nc2cc(NC(=O)c3ccccc3C)ccc2n1C	inconclusive: 26.9 µM [inhibitor, single point]
CC(=O)c1c(C)[nH]c(C(=O)OCc2cccc(C)c2)c1C	inconclusive: 26.9 µM [inhibitor, single point]
CCOC(=O)c1cnc2sc3c(n2c1=O)CCCC3	inconclusive: 30.1 µM [inhibitor, single point]
O=C(c1ccc(Cl)c(S(=O)(=O)N2CCOCC2)c1)N(Cc1ccco1)Cc1cccs1	inactive
CC1=C(C(=O)Nc2ccc(CC(=O)NCc3ccc(OC(C)C)cc3)cc2)SCCO1	active: 2.69 µM
COc1ccc2cc3c(N)nn(C(=O)Cc4c[nH]c5ccccc45)c3nc2c1	inconclusive: 19 µM [inhibitor, partial curve, poor fit]
O=C(Nc1cccc(Cl)c1)c1c(NC(=O)C(F)(F)F)sc2c1CCCC2	active: 16.9 µM
Cc1nc(NC(=O)c2ccc(Br)o2)sc1C	active: 7.57 µM
Cc1cccnc1NC(=O)/C=C/c1ccc2c(c1)OCO2	active: 19 µM
CCN(CC)c1ccc(NC(=O)C(Cc2ccccc2)NS(=O)(=O)c2ccc(Br)s2)c(C)c1 (stereo unspecified)	inconclusive: 4.78 µM [inhibitor, partial curve, poor fit]
COC(=O)c1ccccc1NC(=O)C1=C(C)C(=O)OC12CCC(C)CC2 (stereo unspecified)	inactive
Cc1ccc(NC(=O)CN2C(=O)S/C(=C\c3ccc(-c4cccc(C(=O)O)c4C)o3)C2=O)cc1C	inconclusive: 21.3 µM [inhibitor, single point]
Cc1ccc2oc(C(=O)Nc3sc4c(c3C(=O)NCc3cccnc3)CCCC4)cc(=O)c2c1	inactive
Cc1ccc(C(=O)N2CC(=O)Nc3ccc(F)cc3C2c2ccccc2)cc1[N+](=O)[O-] (stereo unspecified)	inactive
CCCN(CCC)C(=O)Cn1c(=O)n(Cc2ccc(C(=O)NCCc3ccc(Cl)cc3)cc2)c(=O)c2ccccc21	inconclusive: 4.78 µM [inhibitor, partial curve, poor fit]

SMILES	Potency
Nc1nonc1-c1noc(CCCN2C(=O)c3ccccc3C2=O)n1	active: 23.9 µM
O=C(NCc1ccccn1)c1ccc(CNS(=O)(=O)c2ccc(F)cc2)cc1	inconclusive: 8.49 µM [inhibitor, partial curve, poor fit]
O=C(/C=C/c1ccco1)Nc1cccnc1Cl	active: 15.1 µM
CCSc1nn(CC(=O)Nc2cccc(Cl)c2)c(N)c1S(=O)(=O)c1ccc(OC)cc1	inactive
CCC(C)n1c(/C=C/c2ccccc2)nc2ccccc21 (stereo unspecified)	active: 12 µM
COc1cccc(NC(=O)CN(C)C(=O)c2cc3c(s2)CCCCC3)c1	inconclusive: 23.9 µM [inhibitor, partial curve, poor fit]
COc1ccc(NCc2ccc([N+](=O)[O-])s2)c(OC)c1	inconclusive: 23.9 µM [inhibitor, partial curve, poor fit]
Cc1cccc(NC(=O)CSc2nc3ccccc3o2)c1	inconclusive: 4.26 µM [inhibitor, partial curve, poor fit]
COc1cccc(C2CC(=O)C3=C(C2)Nc2ccccc2N(C(=O)CCC(=O)O)C3c2ccc(F)cc2)c1 (stereo unspecified)	inconclusive: 13.5 µM [inhibitor, partial curve, poor fit]
COc1cccc(-c2nn(-c3ccccc3)cc2CNC(C)Cn2cncn2)c1 (stereo unspecified)	inconclusive: 21.3 µM [inhibitor, single point]
CCCC(=O)c1ccc(N2CCCCCC2)c(F)c1	active: 8.49 µM
Cc1ccc(C(C[N+](=O)[O-])Sc2ccc(N)cc2)cc1 (stereo unspecified)	inconclusive: 23.9 µM [inhibitor, partial curve, poor fit]
Cc1ccccc1/C=N/Nc1ncnc2nc[nH]c12	active: 15.1 µM
CCCNC(=O)c1cnc2c(-c3ccc(OCC)c(OCC)c3)c(C)nn2c1-c1ccccc1	inactive
CCOC(=O)c1cc(C)n(CC2CCC(C(=O)Nc3cc(OC)cc(OC)c3)CC2)c1C (stereo unspecified)	inactive
Cn1cnnc1SCC(=O)Nc1ccc(Oc2ccccc2)cc1	inconclusive: 26.9 µM [inhibitor, partial curve, poor fit]
Clc1ccc(-c2csc(N3CCC(c4ccccc4)C3)n2)cc1 (stereo unspecified)	active: 2.69 µM
O=C(Nc1ccc(Cl)c(-c2nc3cc(Cl)ccc3o2)c1)c1cc2ccccc2o1	inconclusive: 15.1 µM [inhibitor, partial curve]
Cc1ccccc1NS(=O)(=O)c1nnc(NC(=O)c2ccco2)s1	inconclusive: 4.78 µM [inhibitor, partial curve, poor fit]
CCc1c(C)[nH]n(-c2nc(-c3cccc([N+](=O)[O-])c3)cs2)c1=O	inconclusive: 21.3 µM [inhibitor, single point]
N#C/C(=C\c1ccc(C(=O)O)cc1)c1nc2sc3c(c2c(=O)[nH]1)CCCC3	inconclusive: 26.9 µM [inhibitor, single point]
COC(=O)CCNC(=O)c1ccc2[nH]c(C)c(C)c2c1	inconclusive: 23.9 µM [inhibitor, partial curve, poor fit]
COc1cccc(C(=O)Nc2ccc(C(=O)O)cc2)c1	inconclusive: 15.1 µM [inhibitor, partial curve, poor fit]
